# Laboratory results taken from the supplement of paper PMC8728848.
# The list shows a part of the results.
# B1: RegIIIalpha (Mus musculus), O09037 (protein)
# chain: MLPHLVLNSISWMLLSCLLFVFQVQGEDFQKEVPSPRTSCPMGYKAYRSHCYALVMTPKSWFQADLVCQKRPSGHLVSILSGGEASFVSSLVNGRVDNYQDIWIGLHDPTMGQQPNGGGWEWSNSDVLNYLNWDGDPSSTVNRGHCGSLTASSGFLKWGDYYCDGTLPFVCKFKQ
# Experiments:
# Experiment in all cases: glycan array binding signal (z-score within array); higher = stronger binding
# Settings in all cases: glycan notation: IUPAC condensed, linker removed
# [1] = biological target: Fuc(a1-2)Gal
# Outline: (§1)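 The binding signal is a Z-score computed within each array and averaged over linkers. Arrays of the same protein sequence at different concentrations or buffers were also averaged together. Data originate from 3228 arrays in the Consortium for Functional Glycomics database, kept only where the protein sequence was available.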
# [2] = biological target: Fuc(a1-2)Gal(b1-3)GalNAc
# Outline: as §1
# [3] = biological target: Fuc(a1-2)Gal(b1-3)GalNAc(b1-3)Gal
# Outline: as §1
# [4] = biological target: Fuc(a1-2)Gal(b1-3)GalNAc(b1-3)Gal(a1-4)Gal(b1-4)Glc
# Outline: as §1
# [5] = biological target: Fuc(a1-2)Gal(b1-3)GalNAc(b1-4)[Neu5Ac(a2-3)]Gal(b1-4)Glc
# Outline: as §1
# [6] = biological target: Fuc(a1-2)Gal(b1-3)GlcNAc
# Outline: as §1
# [7] = biological target: Fuc(a1-2)Gal(b1-3)[Fuc(a1-4)]GlcNAc
# Outline: as §1
# [8] = biological target: Fuc(a1-2)Gal(b1-4)Glc
# Outline: as §1
# [9] = biological target: Fuc(a1-2)Gal(b1-4)GlcNAc
# Outline: as §1
# [10] = biological target: Fuc(a1-2)Gal(b1-4)GlcNAc(b1-3)Gal(b1-4)GlcNAc
# Outline: as §1
# [11] = biological target: Fuc(a1-2)Gal(b1-4)GlcNAc(b1-3)Gal(b1-4)GlcNAc(b1-3)Gal(b1-4)GlcNAc
# Outline: as §1
# [12] = biological target: Fuc(a1-2)Gal(b1-4)[Fuc(a1-3)]GlcNAc
# Outline: as §1
# [13] = biological target: Fuc(a1-2)GlcNAc
# Outline: as §1
# [14] = biological target: Fuc(a1-2)[Gal(a1-3)]Gal
# Outline: as §1
# [15] = biological target: Fuc(a1-2)[Gal(a1-3)]Gal(b1-4)GlcNAc
# Outline: as §1
# [16] = biological target: Fuc(a1-2)[Gal(a1-4)]Gal(b1-4)GlcNAc
# Outline: as §1
# [17] = biological target: Fuc(a1-2)[GalNAc(a1-3)]Gal
# Outline: as §1
# [18] = biological target: Fuc(a1-2)[GalNAc(a1-3)]Gal(b1-4)GlcNAc
# Outline: as §1
# [19] = biological target: Fuc(a1-2)[GalNAc(a1-4)]Gal(b1-4)GlcNAc
# Outline: as §1
# [20] = biological target: Fuc(a1-2)[GalNAc(b1-3)]Gal
# Outline: as §1
# [21] = biological target: Fuc(a1-3)GlcNAc
# Outline: as §1
# [22] = biological target: Fuc(a1-3)[Gal(b1-4)]GlcNAc
# Outline: as §1
# [23] = biological target: Fuc(a1-3)[Gal(b1-4)]GlcNAc(b1-3)Gal(b1-4)[Fuc(a1-3)]GlcNAc
# Outline: as §1
# [24] = biological target: Fuc(a1-3)[Gal(b1-4)]GlcNAc(b1-3)Gal(b1-4)[Fuc(a1-3)]GlcNAc(b1-3)Gal(b1-4)[Fuc(a1-3)]GlcNAc
# Outline: as §1
# [25] = biological target: Fuc(a1-3)[Gal3S(b1-4)]GlcNAc
# Outline: as §1
# [26] = biological target: Fuc(b1-3)GlcNAc
# Outline: as §1
# [27] = biological target: Gal(a1-2)Gal
# Outline: as §1
# [28] = biological target: Gal(a1-3)Gal
# Outline: as §1
# [29] = biological target: Gal(a1-3)Gal(b1-4)Glc
# Outline: as §1
# [30] = biological target: Gal(a1-3)Gal(b1-4)GlcNAc
# Outline: as §1
# [31] = biological target: Gal(a1-3)Gal(b1-4)[Fuc(a1-3)]GlcNAc
# Outline: as §1
# [32] = biological target: Gal(a1-3)GalNAc
# Outline: as §1
# [33] = biological target: Gal(a1-3)[Gal(a1-4)]Gal(b1-4)GlcNAc
# Outline: as §1
# [34] = biological target: Gal(a1-4)Gal(b1-4)Glc
# Outline: as §1
# [35] = biological target: Gal(a1-4)Gal(b1-4)GlcNAc
# Outline: as §1
# [36] = biological target: Gal(a1-4)GlcNAc
# Outline: as §1
# [37] = biological target: Gal(a1-6)Glc
# Outline: as §1
# [38] = biological target: Gal(b1-2)Gal
# Outline: as §1
# [39] = biological target: Gal(b1-3)Gal
# Outline: as §1
# [40] = biological target: Gal(b1-3)GalNAc
# Outline: as §1
# [41] = biological target: Gal(b1-3)GalNAc(b1-4)Gal(b1-4)Glc
# Outline: as §1
# [42] = biological target: Gal(b1-3)GalNAc(b1-4)[Neu5Ac(a2-3)]Gal(b1-4)Glc
# Outline: as §1
# [43] = biological target: Gal(b1-3)GlcNAc
# Outline: as §1
# [44] = biological target: Gal(b1-3)GlcNAc(b1-3)Gal(b1-4)Glc
# Outline: as §1
# [45] = biological target: Gal(b1-3)[Fuc(a1-4)]GlcNAc
# Outline: as §1
# [46] = biological target: Gal(b1-3)[GlcNAc(b1-6)]GalNAc
# Outline: as §1
# [47] = biological target: Gal(b1-3)[Neu5Ac(a2-6)]GalNAc
# Outline: as §1
# [48] = biological target: Gal(b1-3)[Neu5Ac(a2-6)]GlcNAc(b1-4)Gal(b1-4)Glc
# Outline: as §1
# [49] = biological target: Gal(b1-3)[Neu5Ac(b2-6)]GalNAc
# Outline: as §1
# [50] = biological target: Gal(b1-4)GalNAc(a1-3)[Fuc(a1-2)]Gal(b1-4)GlcNAc
# Outline: as §1
# [51] = biological target: Gal(b1-4)Glc
# Outline: as §1
# [52] = biological target: Gal(b1-4)Glc6S
# Outline: as §1
# [53] = biological target: Gal(b1-4)GlcNAc
# Outline: as §1
# [54] = biological target: Gal(b1-4)GlcNAc(b1-3)Gal(b1-4)Glc
# Outline: as §1
# [55] = biological target: Gal(b1-4)GlcNAc(b1-3)Gal(b1-4)GlcNAc
# Outline: as §1
# [56] = biological target: Gal(b1-4)GlcNAc(b1-3)Gal(b1-4)GlcNAc(b1-3)Gal(b1-4)GlcNAc
# Outline: as §1
# [57] = biological target: Gal(b1-4)GlcNAc(b1-3)Gal(b1-4)[Fuc(a1-3)]GlcNAc(b1-3)Gal(b1-4)[Fuc(a1-3)]GlcNAc
# Outline: as §1
# [58] = biological target: Gal(b1-4)GlcNAc(b1-3)GalNAc
# Outline: as §1
# [59] = biological target: Gal(b1-4)GlcNAc(b1-3)[Gal(b1-4)GlcNAc(b1-6)]GalNAc
# Outline: as §1
# [60] = biological target: Gal(b1-4)GlcNAc(b1-6)GalNAc
# Outline: as §1
binder,measurement,setting,value
B1,glycan array binding signal (z-score),[1],-0.097
same,glycan array binding signal (z-score),[2],-0.085
same,glycan array binding signal (z-score),[3],-0.064
same,glycan array binding signal (z-score),[4],-0.087
same,glycan array binding signal (z-score),[5],-0.069
same,glycan array binding signal (z-score),[6],-0.093
same,glycan array binding signal (z-score),[7],-0.066
same,glycan array binding signal (z-score),[8],-0.099
same,glycan array binding signal (z-score),[9],-0.094
same,glycan array binding signal (z-score),[10],-0.097
same,glycan array binding signal (z-score),[11],0.048
same,glycan array binding signal (z-score),[12],-0.066
same,glycan array binding signal (z-score),[13],-0.089
same,glycan array binding signal (z-score),[14],-0.098
same,glycan array binding signal (z-score),[15],-0.098
same,glycan array binding signal (z-score),[16],-0.095
same,glycan array binding signal (z-score),[17],-0.086
same,glycan array binding signal (z-score),[18],-0.101
same,glycan array binding signal (z-score),[19],-0.005
same,glycan array binding signal (z-score),[20],-0.091
same,glycan array binding signal (z-score),[21],-0.053
same,glycan array binding signal (z-score),[22],-0.04
same,glycan array binding signal (z-score),[23],-0.075
same,glycan array binding signal (z-score),[24],-0.097
same,glycan array binding signal (z-score),[25],-0.045
same,glycan array binding signal (z-score),[26],-0.002
same,glycan array binding signal (z-score),[27],-0.09
same,glycan array binding signal (z-score),[28],-0.094
same,glycan array binding signal (z-score),[29],-0.094
same,glycan array binding signal (z-score),[30],-0.089
same,glycan array binding signal (z-score),[31],-0.095
same,glycan array binding signal (z-score),[32],-0.096
same,glycan array binding signal (z-score),[33],0.002
same,glycan array binding signal (z-score),[34],-0.066
same,glycan array binding signal (z-score),[35],-0.094
same,glycan array binding signal (z-score),[36],-0.047
same,glycan array binding signal (z-score),[37],-0.089
same,glycan array binding signal (z-score),[38],-0.09
same,glycan array binding signal (z-score),[39],-0.089
same,glycan array binding signal (z-score),[40],-0.094
same,glycan array binding signal (z-score),[41],-0.094
same,glycan array binding signal (z-score),[42],-0.091
same,glycan array binding signal (z-score),[43],-0.097
same,glycan array binding signal (z-score),[44],-0.088
same,glycan array binding signal (z-score),[45],-0.078
same,glycan array binding signal (z-score),[46],-0.096
same,glycan array binding signal (z-score),[47],-0.094
same,glycan array binding signal (z-score),[48],-0.067
same,glycan array binding signal (z-score),[49],-0.086
same,glycan array binding signal (z-score),[50],-0.078
same,glycan array binding signal (z-score),[51],-0.084
same,glycan array binding signal (z-score),[52],-0.092
same,glycan array binding signal (z-score),[53],-0.086
same,glycan array binding signal (z-score),[54],-0.08
same,glycan array binding signal (z-score),[55],-0.096
same,glycan array binding signal (z-score),[56],-0.097
same,glycan array binding signal (z-score),[57],-0.061
same,glycan array binding signal (z-score),[58],-0.094
same,glycan array binding signal (z-score),[59],-0.098
same,glycan array binding signal (z-score),[60],-0.096
